# Hit rate of the full screen: of about 140,000 compounds, about 240 (0.17%) were called active. Inconclusive means that the source gave no clear call. Such entries were picked first, then a sample of the others. Calls come from the whole dose curve; as a rule, active = well fitted inhibition curve with a large enough effect; inconclusive = small, poorly fitted or top-dose-only effect; inactive = no such curve, though single readings can be large or run the other way. Potencies beside an inconclusive call are fits to weak or partial responses and may not hold up.
# Assay: Primary qHTS assay for inhibitors of alpha-synuclein gene (SNCA) expression; note: nearly all actives have a fitted effect of over 45% in size;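 for activity change, negative = inhibition: plate controls were DMSO cells for no effect and cell-free wells for full effect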
# Settings: HEK-293 SNCA-luciferase knock-in, luminescence, 24 h; activity change, negative = inhibition: at 57.2 µM (top of the series) unless noted
# Potency is the fitted concentration of half-maximal effect; tags give direction and shape of the fitted curve.
Compound,Potency,"activity change, negative = inhibition"
CN(CC1CCOC1)S(=O)(=O)c1ccc(F)cc1 (stereo not given),"inconclusive: 20 µM [inhibitor, partial curve, poor fit]",–
COc1ccc2c(c1)CCc1sc(NC(=O)c3ccc(Cl)cc3)nc1-2,"inconclusive: 31.6 µM [inhibitor, single point]",–
CC1CCN(S(=O)(=O)c2cn(CC(=O)Nc3ccc(F)c(Cl)c3)c(=O)c3ccccc23)CC1,"inconclusive: 7.08 µM [inhibitor, single point]",–
CC(C)c1noc(-c2cccn3c(CNC(=O)c4ccco4)nnc23)n1,–,inactive: -17.5%
O=C(NCc1ccc(F)cc1)c1nc2sccn2c1-c1ccc(C(F)(F)F)cc1,"inconclusive: 39.8 µM [inhibitor, single point]",–
COC(=O)NC1CCN(C(=O)c2ccc(-c3cccs3)cc2)CC1,–,inactive: 16.1% [at 87.6 µM]
CCC(C)NC(=O)Cn1c(=O)n(CC2CCC(C(=O)NC)CC2)c(=O)c2sccc21 (stereo not given),"inconclusive: 14.1 µM [inhibitor, partial curve, poor fit]",–
O=C(Nc1cccc(-c2nnc3n2CCCC3)c1)c1ccc2c(c1)OCO2,"inconclusive: 39.8 µM [inhibitor, single point]",–
Cc1nn2c(c1-c1ccccc1-c1ccccc1)N(Cc1ccc(OCC(=O)O)cc1)CCC2,"inconclusive: 2.82 µM [inhibitor, full curve, poor fit]",–
Cc1ncsc1CN1CCCC(C(=O)NCc2ccccc2)CCNC(=O)CC1 (stereo not given),"inconclusive: 0.631 µM [inhibitor, full curve, poor fit]",–
Cc1ccc(OCc2nc(C3CCN(C(=O)c4c5c(nc6ccccc46)CCCC5)CC3)no2)cc1,"inconclusive: 14.1 µM [inhibitor, partial curve, poor fit]",–
CC(=O)N1CCCN(Cc2nc(-c3cccc(Oc4ccccc4)c3)oc2C)CC1,"inconclusive: 1.12 µM [inhibitor, full curve, poor fit]",–
COc1ccc(CNC(=O)CCc2cn(Cc3cc(C)ccc3C)c3ccccc23)cc1OC,"inconclusive: 14.1 µM [inhibitor, partial curve]",–
O=C(N1CCC2(CC1)CN(c1ccncn1)CC2CO)C1(c2ccccc2)CC1 (stereo not given),"inconclusive: 39.8 µM [inhibitor, single point]",–
CCOC(=O)C1(Cc2ccc(F)cc2F)CCCN(C(=O)c2c(C)nc3ncccn23)C1 (stereo not given),–,inactive: 6.84%
CN(CC(=O)Nc1cccc(Cl)c1)S(=O)(=O)c1ccc2[nH]c3c(c2c1)CCCC3,"inconclusive: 39.8 µM [inhibitor, single point]",–
O=C1OC[C@@H]2CCNCc3ccccc3N12,–,inactive: 27.6% [at 87.6 µM]
Cc1c(C(=O)Nc2ccc(F)c(F)c2)oc2ccc(S(=O)(=O)N3CCCCC3)cc12,–,inactive: 9.28%
O=C(c1ccccn1)N1CCCC2(CC(c3ccccn3)=NO2)C1 (stereo not given),"inconclusive: 2.82 µM [inhibitor, partial curve, poor fit]",–
Cc1c(Cl)cccc1NC(=O)CC(c1cccs1)N1Cc2ccccc2C1=O (stereo not given),"inconclusive: 35.5 µM [inhibitor, single point]",–
O=C(NC1CCN(C(=O)c2ccc(-c3cccs3)cc2)CC1)C1CCCC1,–,inactive: 23.2%
CCC1Oc2ccc(NC(=O)Cc3ccccc3)cc2CN(Cc2ccccc2)C1=O (stereo not given),"inconclusive: 7.08 µM [inhibitor, full curve]",–

Compound,Potency,"activity change, negative = inhibition"
CCN(c1ccccc1)S(=O)(=O)c1ccc2[nH]cc(C(=O)NC3CCCCC3)c(=O)c2c1,"inconclusive: 28.2 µM [inhibitor, single point]",–
COc1ccccc1CNC(=O)c1cc2c(N3CCCC3)nc(C)cn2n1,–,inactive: -9.24%
CCOC(=O)C1CCN(c2c(C(=O)c3ccc(OCC)cc3)cnc3ccc(OC)cc23)CC1,"inconclusive: 39.8 µM [inhibitor, single point]",–
CC(C)N(C)S(=O)(=O)c1ccc2c(c1)CCN(C(=O)c1cscn1)C2,–,inactive: 3.73%
Cc1nc(N2CCN(C(=O)Cc3cccs3)CC2)cc(C(F)(F)F)n1,"inconclusive: 25.1 µM [inhibitor, single point]",–
O=C(NCc1cccs1)C1CN(Cc2ccccc2)C(=O)N1 (stereo not given),"inconclusive: 31.6 µM [inhibitor, single point]",–
CN(Cc1cn(-c2ccccc2)nn1)Cc1cnc2ccccn12,"inconclusive: 39.8 µM [inhibitor, single point]",–
CC1CCN(CC2CCCN(C(=O)c3ccc(F)cc3)CC2)CC1 (stereo not given),"inconclusive: 39.8 µM [inhibitor, single point]",–
COCCN(C)C(=O)C1(C)CN(Cc2ccccc2)Cc2ccc(NCC(C)C)nc21 (stereo not given),"inconclusive: 28.2 µM [inhibitor, single point]",–
O=C(CSc1nnc(-c2ccc3c(c2)OCO3)o1)Oc1ccccc1,"inconclusive: 39.8 µM [inhibitor, single point]",–
O=C(c1cccnc1)N1CCC2(COc3ncccc3[S+](=O)([O-])N2)C1 (stereo not given),"inconclusive: 8.91 µM [inhibitor, single point]",–
COc1ccccc1NC(=O)CSc1ncc2c(n1)-c1ccccc1N(Cc1ccccc1C)S2(=O)=O,"inconclusive: 2.82 µM [inhibitor, full curve]",–
O=C(NC1CCC1)c1ccc2c(c1)C1(CCN(CC3CC3)C1)CN2Cc1ccccc1 (stereo not given),–,inactive: -12.1% [at 87.6 µM]
Cc1ccc(C(=O)N2CCC3(C2)C(=O)N(CCc2ccccc2)c2ccccc23)cc1 (stereo not given),"inconclusive: 2.82 µM [inhibitor, full curve, poor fit]",–
COc1ccc2cc([C@H](C)C(=O)O)ccc2c1,"inconclusive: 0.607 µM [inhibitor, full curve, poor fit]",–
CC1(COc2ccccc2)COc2ccc(C(=O)NCc3cccs3)cc2N1 (stereo not given),–,inactive: 8.95% [at 87.6 µM]
O=C(c1ccco1)N1CC(Oc2ccc(-c3nc(-c4ccccc4)no3)cc2)C1,–,inactive: -2.93%
Cc1cccc(C(C(=O)N(C)Cc2ccon2)N(C)C)c1 (stereo not given),–,inactive: -3.88%
Cc1ccc(C(=O)N2CCCC(n3cc(-c4nc(C5CC5)no4)nn3)C2)s1 (stereo not given),–,inactive: 31.7%
O=C(C1CCCCC1)N1Cc2[nH]cnc2C[C@H]1c1nc(-c2ccc3ccccc3c2)no1,"inconclusive: 56.2 µM [inhibitor, single point]",–
CS(=O)(=O)N1CCC(Oc2ccc(C(=O)NCCc3cnccn3)cc2Cl)CC1,–,inactive: 15.6%
C=C(C)CSc1nc2sc3c(c2c(=O)n1Cc1ccccc1)CC(C)(CC)OC3 (stereo not given),"inconclusive: 39.8 µM [inhibitor, single point]",–

Compound,Potency,"activity change, negative = inhibition"
COc1ccc(Cl)cc1NC(=O)c1c(NCc2ccc(C)o2)sc2c1CCC(C)C2 (stereo not given),"inconclusive: 39.8 µM [inhibitor, single point]",–
CCn1ccc(C(=O)N2CCC(Oc3ccccc3-c3nc(-c4ccccc4)no3)C2)n1 (stereo not given),"inconclusive: 39.8 µM [inhibitor, single point]",–
CCOc1ccc(CC(=O)Nc2cccc(-c3nc4cccnc4s3)c2C)cc1,"inconclusive: 2.51 µM [inhibitor, single point]",–
Cc1cc(C)cc(-n2ccnc2SCC(=O)Nc2cccc3ccccc23)c1,"inconclusive: 35.5 µM [inhibitor, single point]",–
COc1cc(C2CC(=O)N(Cc3cccc(F)c3)c3ccccc3S2)cc(OC)c1OC (stereo not given),"inconclusive: 17.8 µM [inhibitor, single point]",–
Cc1nc2cc(-c3ccccc3)nn2c(C)c1CCC(=O)N1CCN(c2ccc(F)cc2)CC1,"inconclusive: 14.1 µM [inhibitor, partial curve, poor fit]",–
CCOC(=O)Cn1c(=N)n(Cc2ccc(C(C)(C)C)cc2)c2ccccc21,"inconclusive: 25.1 µM [inhibitor, single point]",–
CN(Cc1ccccc1)C(=O)CC1CCN(C(=O)CCC2CCCC2)C1 (stereo not given),–,inactive: 5.5%
CC[C@H]1CN(C(=O)Nc2ccccc2)CC[C@H]1CC(=O)NCc1ccccc1,–,inactive: -17.2% [at 87.6 µM]
CCc1ccc(S(=O)(=O)c2cn(CC(=O)Nc3ccc(F)c(Cl)c3)c3ccccc3c2=O)cc1,"inconclusive: 0.562 µM [inhibitor, full curve, poor fit]",–
CCOCCCNC(=O)NCC1Cn2cccc2CN1Cc1ccccc1 (stereo not given),–,inactive: 4.65%
COc1ccc(-c2nc3nc(C)cc(C)n3c2Nc2c(C)cccc2C)cc1,"inconclusive: 0.398 µM [inhibitor, full curve, poor fit]",–
COc1ccccc1CNC(=O)C1(c2cccs2)CCOCC1,"inconclusive: 35.5 µM [inhibitor, partial curve, poor fit]",–
COc1ccc(CC(=O)N2CCC(C(=O)N3CCCC3c3nc4ccncc4[nH]3)CC2)cc1 (stereo not given),–,inactive: 19.3%
CCn1cc(C(=O)N2C[C@@H](COC)[C@H](c3nc(C)no3)C2)cn1,"inconclusive: 39.8 µM [inhibitor, partial curve, poor fit]",–
COCC(=O)N[C@@H]1CN(Cc2ccco2)CC[C@@H]1c1n[nH]c(C)n1,"inconclusive: 31.6 µM [inhibitor, partial curve, poor fit]",–
Cc1ccc(NC(=O)C2CC(=O)Nc3ncnn32)cc1C (stereo not given),"inconclusive: 11.2 µM [inhibitor, partial curve, poor fit]",–
CN(Cc1cccnc1)c1ccc2ncc(Nc3ccc(F)cc3)n2n1,–,inactive: -28.5% [at 87.6 µM]
Cc1cnc(-c2ccccc2)n1CC1CCN(C(=O)c2ccsc2)C1 (stereo not given),–,inactive: -3.34%
COc1cc(C)c(-c2nc(CN3CCCC(CN)C3)c(C)o2)cc1C (stereo not given),"inconclusive: 17.8 µM [inhibitor, single point]",–
O=C1NC2(CCN(C(=O)c3cccnc3)C2)N=C1c1ccccn1 (stereo not given),"inconclusive: 22.4 µM [inhibitor, partial curve]",–

# From PubChem BioAssay AID1671194 (National Center for Advancing Translational Sciences (NCATS), 2021)
